Laboratory results reported in the supplement of paper PMC10126150.
Sequences with one replicate were seen in a single cluster, so their values are uncertain.

Tested on: ATP
Assay: switch fluorescence ratio, 500 uM ATP over buffer (Cy3 cluster intensity, sum of 5 cycles each) (fold (ratio)); higher = stronger signal-on switching upon ATP binding; sequences stand for … in TCGTCGGCAGCGTCAGATGTGTATAAGAGACAGTTTTTTTTTTTTTTTTTTTTTTTTT…TC
Settings: aptamer strand: ATP DNA aptamer (quencher-CACCTGGGGGAGTATTGCGGAGGAAGG + anchor), 100 nM annealed; ATP concentration: 500 uM; one replicate
Method in brief: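 Cy3-labelled switching-strand clusters on a modified Illumina MiSeq flow-cell were annealed to 100 nM quencher-labelled ATP aptamer, imaged in selection buffer, then imaged after 15 min with 500 uM ATP at 22 °C. Five buffer/ATP cycles ran, with NaOH stripping and re-annealing between them. The fluorescence ratio is summed target-cycle over summed buffer-cycle Cy3 intensity per cluster, averaged per switch-domain sequence. Clusters outside 100-1000 RFU were excluded.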
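Further: ATP exposure 15 min at 22 °C before imaging.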

| Sequence | switch fluorescence ratio |
| --- | --- |
| CGTCACTTCA | 1.07 |
| GGTCGTTTAA | 1.01 |
| GGTGGCTGAG | 1.01 |
| GCCTAACGAA | 1.01 |
| GCCGACCGCG | 1.06 |
| TAGTTTTG | 0.988 |
| ATGCTATATC | 1.17 |
| TCTGCCAGGT | 1.37 |
| TCGAGGTCTC | 0.947 |
| GCTTTGTATT | 0.998 |
| ACGTCGTTGG | 1.02 |
| ATCGGAGAG | 0.967 |
| GCCAAAAAAC | 1.08 |
| AGCACTGTGG | 1.04 |
| CGACAGTGAG | 1.03 |
| AACATGAGGG | 0.998 |
| CTAAGGCTGG | 1.02 |
| CGTCCCCGTA | 1.18 |
| CGCGGCCGCC | 0.981 |
| GTAAGGCT | 1.03 |
| CACGGAGCCA | 1.34 |
| CTTGCCTGCC | 1.35 |
| TTTGCGTCTT | 0.996 |
| CGTGTAGAAG | 1.03 |
| CTTCTTTCCT | 1.04 |

| Sequence | switch fluorescence ratio |
| --- | --- |
| TCAAGGAGGA | 0.977 |
| AAATATTCTG | 0.971 |
| CGGCCAACGG | 1.05 |
| TACAGCTGTA | 1.02 |
| TGGTGTGTAT | 0.947 |
| GTATTGCATA | 0.98 |
| AGTAATCTTC | 1.07 |
| ACTATCCTTC | 1.11 |
| TACAAGACAT | 1.02 |
| AAATGAGAAA | 0.982 |
| TCACCGTTCC | 2.07 |
| AAGTCAGACG | 1.02 |
| AAGCCGTGTA | 1.04 |
| CGATTCCCC | 1.07 |
| CAATATTTAT | 1.02 |
| CGGATTCCTT | 1 |
| CTTTGTATGA | 0.945 |
| TCCGGAGAGT | 1.81 |
| TCTAAGAACC | 1.03 |
| TTGTCGGGAG | 1.05 |
| AGAACTAGCC | 1 |
| CCCTTTTACT | 1.04 |
| CGTTGCTTAC | 2.29 |
| GGATGCAGGT | 1.01 |
| GTCCCCTTAG | 1.03 |

| Sequence | switch fluorescence ratio |
| --- | --- |
| CATTCTTTTA | 1 |
| GAAAACTTCA | 1.12 |
| CAAGTTAGAG | 0.984 |
| GATAAAACGT | 1.02 |
| TAAGAGTGA | 0.967 |
| GGCAGGAATC | 1.07 |
| AAGGACGAGA | 1.02 |
| CGGAGGACTA | 1.02 |
| CTGAGGCAGA | 1.75 |
| GGCTACTTAA | 1.04 |
| CGGCGCCGGT | 0.966 |
| AGCATGGATA | 1.01 |
| CGATATTCTT | 0.967 |
| TAAGTAAAGA | 1.02 |
| TATTTGGTCA | 0.963 |
| GGAAGAAAGC | 0.984 |
| GCATGGTGAG | 1.04 |
| GGGTATTTGA | 1.01 |
| ACATAGGAAT | 1.04 |
| AGTAGCATTG | 1 |
| GGGAGGTGAT | 1.03 |
| TTAGCGTAAT | 1.15 |
| GGCGTCGGAC | 1.02 |
| GGCTAGATTT | 1.06 |
| AATGAGGGGC | 1.01 |

| Sequence | switch fluorescence ratio |
| --- | --- |
| TCGTGCGCGG | 1.02 |
| CCGATGTTAA | 1.11 |
| TGTTGGAAAT | 0.982 |
| TTTGCAAACG | 0.995 |
| CAGTGGCGGG | 1.01 |
| CTTAGTGTCG | 0.986 |
| GATCGGTCAG | 1.01 |
| TTTTAGAACG | 1.03 |
| AAAGAAGTCG | 1 |
| CTCGGAATTG | 1.07 |
| CATTTCTCCC | 1.01 |
| TGATAGGAGG | 0.997 |
| GACGCCAAGT | 1.07 |
| AGAAGTGCGC | 1.02 |
| TATTCAAATC | 1.03 |
| CCTCATGATT | 1.06 |
| GCAACCGCAG | 1.22 |
| AACTAAGCCT | 1.04 |
| TTCCGAAGAG | 1.54 |
| CGCGCTTGTC | 1.12 |
| GGGAACGCTG | 0.967 |
| CTTCATGGGA | 1.01 |
| AATATAACCC | 1.03 |
| GGACAATATG | 0.931 |
| AGCTGTTGGC | 1 |

| Sequence | switch fluorescence ratio |
| --- | --- |
| GCCTTAAGGC | 1 |
| GGGGCATGAT | 1.04 |
| GTGTGGTATG | 0.972 |
| CGTATCGTTT | 1.01 |
| CTGGCTGTAT | 0.991 |
| TCTATAGGTC | 1.04 |
| AGACGATGGC | 1.06 |
| AGAAGCAACG | 0.986 |
| GACCGGCTTA | 1.03 |
| TGCTTCACTG | 1.02 |
| TAGTTTCGCA | 1.04 |
| AACTAAAGAG | 0.97 |
| GTTGGTTTT | 0.991 |
| GCGAATCATT | 0.997 |
| TTGTGCAGTA | 0.982 |
| GCCTGATAG | 0.978 |
| TCGTAGGGGC | 1.05 |
| CAGGTAAGAT | 1 |
| TCGGAGCAAT | 1.64 |
| ACATCCTCTC | 1.04 |
| GGAAAACAAT | 0.978 |
| TGCATTTAAC | 1.08 |
| GCTGGCTCGG | 0.96 |
| ATCCTCAATT | 1.13 |
| CGAGGGAAAA | 0.995 |

| Sequence | switch fluorescence ratio |
| --- | --- |
| ACTTTAAGGG | 1.06 |
| TAGTACGTGG | 0.987 |
| AGGGGAACG | 1.02 |
| CTAACCGTAT | 1.1 |
| ACTTTAGGCG | 1.06 |
| CGGAAATTTT | 0.972 |
| CGCATTGGCG | 0.987 |
| TATAAAGGCG | 1.53 |
| TTCCCACAAT | 1.26 |
| ACAGGTTGTC | 1.06 |
| TTAGGGTGTG | 1.03 |
| CTAGAATATA | 1 |
| ATTCCACGC | 1.33 |
| TTAACCCAAC | 1.09 |
| AGAGACCGTA | 0.936 |
| AAGTTTCGTA | 0.977 |
| GGAGAATTAA | 1 |
| TTAATAAGTT | 1.03 |
| CTTACGTGTC | 1.02 |
| CAGATATTCC | 1.1 |
| AGGCGTCGTT | 1.01 |
| TAGTAATGCG | 1.01 |
| GATTTGACTT | 0.997 |
| TTCTTTTCCT | 1.19 |
| TTGAAATAAA | 1.03 |

| Sequence | switch fluorescence ratio |
| --- | --- |
| TTTAGTGGT | 0.996 |
| GGACTCGGCG | 0.926 |
| TAATTATGGA | 1 |
| CGTAGAACTT | 0.989 |
| TAGGATGACT | 0.985 |
| TCAGGGCCTT | 0.986 |
| ATTATAGGTC | 1.04 |
| TGCCAGAGA | 1 |
| GTTATAGATA | 0.992 |
| ACAGAAAACC | 1.05 |
| TATTTATTGA | 0.993 |
| TTTCCTGTAG | 1.02 |
| CAAGAAAACC | 1.05 |
| AGAGGTGATT | 1.05 |
| GAATATTAGT | 1 |
| ACTAACAGT | 1.04 |
| GAACTAAACA | 1.04 |
| TTCGCGGTAC | 2.27 |
| TGGTCGGTAC | 1.11 |
| TCTCGCACG | 1.08 |
| GTCAACTAGC | 1.01 |
| GTTAAGGCTC | 1 |
| CCGACGAGGG | 2.91 |
| TCTTGCTAGT | 1 |
| TGGGGGCTGA | 1.04 |

| Sequence | switch fluorescence ratio |
| --- | --- |
| ATGCATTCGG | 0.995 |
| GTCATTCAGA | 0.985 |
| CGGGCGGGTC | 1.02 |
| AGGTGTACGT | 1.04 |
| GCGAAGGTTT | 1.02 |
| TGTGCATGTT | 0.989 |
| CAGGAGTACG | 0.949 |
| AAGTCTGGA | 0.998 |
| GTTAGATGTA | 0.972 |
| GATATCAATC | 1.02 |
| GCGGCAAAAA | 0.981 |
| GGTTATTCGA | 0.973 |
| TCAATCTAAG | 1.11 |
| ACTGACTCGT | 1.13 |
| TGGATGAGAC | 0.964 |
| GAGAGACGT | 0.973 |
| CATCGGTTGC | 1.09 |
| ATTTAATTA | 1 |
| AGTCGGACTC | 1.03 |
| GCGCTCAGTA | 1 |
| TACGGTTAAT | 1.05 |
| TTGCGTAATT | 1.02 |
| TAGTTTCAAG | 1 |
| CCAGGATCAC | 1.09 |
| GGGAAAAGCG | 0.945 |
